The campaign covered roughly 310,000 compounds. About 14,000 (4.5%) showed an effect of 50% or more. Effects have a minus sign here. This is one part of the list.
The molecules below were run against human ether-à-go-go-related gene (hERG) potassium channel (human, UniProt Q12809) (assay: primary screen, population patch clamp on CHO cells stably expressing hERG).
Chain of human ether-à-go-go-related gene (hERG) potassium channel (Q12809 whole entry, looked up): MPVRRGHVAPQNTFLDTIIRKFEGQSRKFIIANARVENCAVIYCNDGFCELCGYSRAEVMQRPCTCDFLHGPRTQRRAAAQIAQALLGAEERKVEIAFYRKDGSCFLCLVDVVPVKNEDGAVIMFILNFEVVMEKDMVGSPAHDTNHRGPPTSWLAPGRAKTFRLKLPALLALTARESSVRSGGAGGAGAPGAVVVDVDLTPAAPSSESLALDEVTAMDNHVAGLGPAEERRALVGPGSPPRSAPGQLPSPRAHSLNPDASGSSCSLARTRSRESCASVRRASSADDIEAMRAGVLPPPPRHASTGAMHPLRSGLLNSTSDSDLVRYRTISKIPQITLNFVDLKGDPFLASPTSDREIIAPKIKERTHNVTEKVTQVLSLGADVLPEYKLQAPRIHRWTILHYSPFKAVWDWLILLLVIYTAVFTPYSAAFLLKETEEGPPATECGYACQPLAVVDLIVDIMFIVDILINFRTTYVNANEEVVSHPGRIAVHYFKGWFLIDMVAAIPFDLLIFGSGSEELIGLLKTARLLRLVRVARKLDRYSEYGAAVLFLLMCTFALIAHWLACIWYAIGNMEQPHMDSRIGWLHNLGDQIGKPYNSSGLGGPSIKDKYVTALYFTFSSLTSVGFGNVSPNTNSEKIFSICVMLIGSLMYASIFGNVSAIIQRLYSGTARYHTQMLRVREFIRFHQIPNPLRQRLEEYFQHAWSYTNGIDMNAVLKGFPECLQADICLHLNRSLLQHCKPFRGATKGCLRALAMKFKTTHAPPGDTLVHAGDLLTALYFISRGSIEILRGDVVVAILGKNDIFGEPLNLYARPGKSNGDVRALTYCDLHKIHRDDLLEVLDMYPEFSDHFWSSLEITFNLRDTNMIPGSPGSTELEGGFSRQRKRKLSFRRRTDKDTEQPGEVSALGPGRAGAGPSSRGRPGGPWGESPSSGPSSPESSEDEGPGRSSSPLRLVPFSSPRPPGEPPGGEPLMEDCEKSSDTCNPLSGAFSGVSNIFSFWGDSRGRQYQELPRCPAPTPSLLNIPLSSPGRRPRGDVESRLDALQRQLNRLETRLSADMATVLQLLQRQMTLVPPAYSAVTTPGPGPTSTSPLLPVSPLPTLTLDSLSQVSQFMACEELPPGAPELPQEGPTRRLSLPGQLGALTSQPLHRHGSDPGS
With Cc1sc(-n2cccc2)c(C(=O)O)c1C the “hERG current change (%, negative = inhibition) at 10uM” value was 8.6%. CC1(c2ccccc2Cl)NC(=O)N(CC(=O)NC(=O)NCc2ccco2)C1=O (stereo not shown) was tested, and the “hERG current change (%, negative = inhibition) at 10uM” value was -8.53%. With CCCCNC(=O)C1CCC(CNS(=O)(=O)c2c(C)cc(C)cc2C)CC1 (stereo not shown) the “hERG current change (%, negative = inhibition) at 10uM” value was 3.09%. Cc1ccc(SCCC(=O)NCc2ccncc2)cc1 was tested, and the “hERG current change (%, negative = inhibition) at 10uM” value was -61.9%. CC(=O)Oc1ccc2ccccc2c1C(NC(=O)Cc1ccccc1)c1ccccc1Cl (stereo not shown) was tested, and the “hERG current change (%, negative = inhibition) at 10uM” value was 7.9%. In the case of CC[N+](C)(CC)CC(=O)OCC1C(C)C=C(C)CC1C.[I-] (stereo not shown), the “hERG current change (%, negative = inhibition) at 10uM” value is reported as 13.3%. Cc1ccccc1N(CC(=O)NC1CCCCC1)C(=O)CCCC(=O)Nc1ccccn1 was tested, and the “hERG current change (%, negative = inhibition) at 10uM” value was -4.16%. For O=C(CSc1nncn1-c1ccccn1)Nc1ccccc1Cl, the “hERG current change (%, negative = inhibition) at 10uM” value was 4.16%. With C#CCOCCOCCOCCNc1nc(N2CCN(C(=O)[C@H]([C@@H](C)CC)n3cc(CCC[NH+]=C(N)N)nn3)CC2)nc(N2CCN(C(=O)[C@H](Cc3ccc(O)cc3)n3cc(CCO)nn3)CC2)n1.[Cl-] the “hERG current change (%, negative = inhibition) at 10uM” value was 29.5%. In the case of O=C(O)CCN1C(=O)c2ccc(NC(=O)CSc3ccccc3)cc2C1=O, the “hERG current change (%, negative = inhibition) at 10uM” value is reported as 4.22%. For CCc1ccc(N2CC(C(=O)Nc3cccc(C(=O)NC4CC4)c3)CC2=O)cc1 (stereo not shown), the “hERG current change (%, negative = inhibition) at 10uM” value was 10.6%. COc1cc(OC)cc(C(=O)NCCCCc2ccccc2)c1 was tested, and the “hERG current change (%, negative = inhibition) at 10uM” value was -56%. CCCCC(=O)OCCNC(=O)c1cc2ccccc2oc1=O was tested, and the “hERG current change (%, negative = inhibition) at 10uM” value was 8.23%. With CN1CCN(c2nccc3c2ncn3C)CC1.Cl the “hERG current change (%, negative = inhibition) at 10uM” value was 5.13%. With CCNC(=O)COc1ncnc2scc(-c3ccc(F)cc3)c12 the “hERG current change (%, negative = inhibition) at 10uM” value was -12%. In the case of O=C(O)CCC(=O)Nc1cccc2cccnc12, the “hERG current change (%, negative = inhibition) at 10uM” value is reported as 32.3%. With CC(C)(C)c1ccc(C(=O)NNC(=O)c2ccncc2)cc1 the “hERG current change (%, negative = inhibition) at 10uM” value was 15.5%. CC(=O)Oc1ccc(N(C(C)=O)S(=O)(=O)c2ccc(Cl)cc2)c2ccccc12 was tested, and the “hERG current change (%, negative = inhibition) at 10uM” value was 1.86%. In the case of O=C(Nc1nnc(S(=O)(=O)N2CCOCC2)s1)c1cccc(F)c1, the “hERG current change (%, negative = inhibition) at 10uM” value is reported as 16.6%. For Cc1cccc(NC(=S)N(CCCN2CCOCC2)Cc2ccccn2)c1, the “hERG current change (%, negative = inhibition) at 10uM” value was -22.3%. With COC(=O)C1=C(O)CSC1=Nc1cccc(C(F)(F)F)c1 the “hERG current change (%, negative = inhibition) at 10uM” value was -26.2%. O=C(CN1C(=O)CCSc2ccccc21)Nc1ccc2c(c1)OCCO2 was tested, and the “hERG current change (%, negative = inhibition) at 10uM” value was 0.514%. For Cc1cc(C)nc(NC(=O)C(c2ccccc2)c2ccccc2)n1, the “hERG current change (%, negative = inhibition) at 10uM” value was 4.18%. In the case of O=C(O)C1Cc2ccccc2-c2ccccc2C1, the “hERG current change (%, negative = inhibition) at 10uM” value is reported as 20.1%. For O=C(CCCOc1ccc(Cl)cc1Cl)N/N=C/c1ccccc1, the “hERG current change (%, negative = inhibition) at 10uM” value was 6.94%. With COc1ccc(NC(=O)CCS(=O)(=O)c2ccc3c(c2)CCCN3C(C)=O)cc1 the “hERG current change (%, negative = inhibition) at 10uM” value was 9.92%. For O=C(CC1C(=O)NCCN1Cc1ccc(-c2ccccc2)cc1)NCCCn1cccn1 (stereo not shown), the “hERG current change (%, negative = inhibition) at 10uM” value was -8.84%. In the case of CCOC(=O)C1CCCN(C(=O)c2cc(Nc3ccc(OC)cc3OC)nc3ccccc23)C1 (stereo not shown), the “hERG current change (%, negative = inhibition) at 10uM” value is reported as -17.2%. With CCCCNc1ccc2nsnc2c1[N+](=O)[O-] the “hERG current change (%, negative = inhibition) at 10uM” value was -18.8%. For C[n+]1ccc(/C=C/c2c[nH]c3ccc(F)cc23)cc1.[I-], the “hERG current change (%, negative = inhibition) at 10uM” value was -18.5%. In the case of Cc1c(N(C(=O)c2ccccn2)C2(C(=O)NC3CCCCC3)CCCCC2)c(=O)n(-c2ccccc2)n1C, the “hERG current change (%, negative = inhibition) at 10uM” value is reported as -23.1%. O=c1cc(-c2ccccc2Cl)oc2c(NS(=O)(=O)c3ccccc3OC(F)(F)F)ccc(O)c12 was tested, and the “hERG current change (%, negative = inhibition) at 10uM” value was 0.267%. In the case of CCOC(=O)c1c(NC(=O)C2CC(Cl)=CCC2C(=O)O)sc2c1CC(C)(C)OC2 (stereo not shown), the “hERG current change (%, negative = inhibition) at 10uM” value is reported as 29.2%. Oc1c(C(Nc2ccccn2)c2ccccn2)ccc2cccnc12 (stereo not shown) was tested, and the “hERG current change (%, negative = inhibition) at 10uM” value was -36.8%. In the case of CCc1ccc(Nc2ncccc2C#N)cc1, the “hERG current change (%, negative = inhibition) at 10uM” value is reported as 0.479%. Cn1c(=O)c2c(nc(CN3CCN(c4ccccc4)CC3)n2CCCc2ccccc2)n(C)c1=O was tested, and the “hERG current change (%, negative = inhibition) at 10uM” value was -32.7%. In the case of CC1(C)CC(=O)C2=C(C1)OC(N)=C(C#N)C2c1ccc[nH]1 (stereo not shown), the “hERG current change (%, negative = inhibition) at 10uM” value is reported as 11.7%. For CC(C)NC(=O)COc1ccccc1C#N, the “hERG current change (%, negative = inhibition) at 10uM” value was 10.8%. For O=C(Nc1ccc2sccc2c1)c1ccc(Cl)s1, the “hERG current change (%, negative = inhibition) at 10uM” value was 10%. In the case of O=C(CCc1nc2cccnc2n1Cc1ccccc1)NCCc1ccc(Cl)cc1, the “hERG current change (%, negative = inhibition) at 10uM” value is reported as -78.6%. For O=C(NCC(O)c1ccccc1)c1ccccc1 (stereo not shown), the “hERG current change (%, negative = inhibition) at 10uM” value was 14.7%. For O=C(OCC(=O)N(CCc1ccccc1)Cc1ccccc1)c1ccccc1NCCO, the “hERG current change (%, negative = inhibition) at 10uM” value was -0.338%. In the case of O=C(Cc1cccs1)Nc1ccc(-c2nc3ccccc3[nH]2)cc1, the “hERG current change (%, negative = inhibition) at 10uM” value is reported as 4.9%. NS(=O)(=O)OCC1CCCCC1 was tested, and the “hERG current change (%, negative = inhibition) at 10uM” value was 21.2%. For O=C(Nc1ccc(OC(=O)c2cccnc2)cc1)c1cccnc1, the “hERG current change (%, negative = inhibition) at 10uM” value was 4.18%. Clc1ncnc2scc(-c3ccc(Br)cc3)c12 was tested, and the “hERG current change (%, negative = inhibition) at 10uM” value was 7.97%. With O=C(CCc1nnc2ccc(NCc3ccco3)nn12)Nc1cc(F)ccc1F the “hERG current change (%, negative = inhibition) at 10uM” value was -23.2%. For CC(SC#N)C(=O)C12CC3CC(CC(C3)C1)C2 (stereo not shown), the “hERG current change (%, negative = inhibition) at 10uM” value was -8.99%. In the case of O=C(CN1CCN(c2ccc(Cl)cc2)CC1)c1ccc2c(c1)OCO2, the “hERG current change (%, negative = inhibition) at 10uM” value is reported as -16.7%. With c1ccc(N2CCN(Cc3ccsc3)CC2)nc1 the “hERG current change (%, negative = inhibition) at 10uM” value was -18.1%. With CCNC(=O)CC1C(=O)N(c2ccc(C)cc2)C(=O)N1CCOC (stereo not shown) the “hERG current change (%, negative = inhibition) at 10uM” value was 32.3%. In the case of O=C(CS(=O)(=O)c1ccccc1)Nc1ccccn1, the “hERG current change (%, negative = inhibition) at 10uM” value is reported as 40.8%. For CCOC(=O)C1CCN(C(=O)c2ccccc2NC(C)=O)CC1, the “hERG current change (%, negative = inhibition) at 10uM” value was 10.4%. In the case of COc1ccc(/C=C/C(=O)NC(C)CCc2ccccc2)cc1 (stereo not shown), the “hERG current change (%, negative = inhibition) at 10uM” value is reported as -17%. With Cn1c(CSCc2ccc(Cl)cc2)n[nH]c1=S the “hERG current change (%, negative = inhibition) at 10uM” value was 11%. In the case of O=C(NC1CCS(=O)(=O)C1)c1cccnc1 (stereo not shown), the “hERG current change (%, negative = inhibition) at 10uM” value is reported as 7.85%. For O=C(c1cccs1)N(c1ccc(F)cc1)C1C=CS(=O)(=O)C1 (stereo not shown), the “hERG current change (%, negative = inhibition) at 10uM” value was 2.79%. For COc1ccccc1C(=O)NC(CCSC)C(=O)NNC(=O)C(C)Oc1ccccc1F (stereo not shown), the “hERG current change (%, negative = inhibition) at 10uM” value was 0.592%.
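Further: peak tail current of the secondary pulse compared with the same well before compound.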
